According to PubChem BioAssay AID360 (National Center for Advancing Translational Sciences (NCATS), 2006):
In all, about 48,000 compounds went through this assay and about 550 (1.1%) were called active. About 4% were inconclusive and are not listed. No stated cut-off is given here; in the data, active means potency below about 15 µM; inconclusive means mostly about 16 µM to 33 µM; inactive means weaker than that. The list shows a part of the results.

target: Lysosomal acid glucosylceramidase (Homo sapiens) (UniProt P04062); assay: Glucocerebrosidase; settings: purified enzyme, resorufin glucoside fluorescence (screen aimed at inhibitors), 20 min; series mostly up to 77 µM;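 further: the screen sought inhibitors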
Sequence of UniProt P04062 (P04062 whole entry, looked up): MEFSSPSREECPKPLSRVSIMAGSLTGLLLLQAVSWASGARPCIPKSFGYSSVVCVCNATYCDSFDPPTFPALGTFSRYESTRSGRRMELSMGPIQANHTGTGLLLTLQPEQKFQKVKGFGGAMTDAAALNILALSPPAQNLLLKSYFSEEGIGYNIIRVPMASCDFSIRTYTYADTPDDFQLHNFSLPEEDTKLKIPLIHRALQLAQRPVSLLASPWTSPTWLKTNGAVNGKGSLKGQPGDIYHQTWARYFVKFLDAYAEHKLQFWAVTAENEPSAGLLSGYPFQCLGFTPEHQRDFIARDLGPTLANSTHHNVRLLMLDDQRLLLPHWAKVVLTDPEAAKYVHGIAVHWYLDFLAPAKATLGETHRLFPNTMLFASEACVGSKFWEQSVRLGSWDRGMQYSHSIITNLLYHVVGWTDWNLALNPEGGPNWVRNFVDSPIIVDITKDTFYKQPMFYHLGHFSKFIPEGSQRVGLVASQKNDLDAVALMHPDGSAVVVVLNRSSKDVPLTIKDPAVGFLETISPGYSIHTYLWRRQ
Procedure, shortened: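 Compounds titrated against 0.2 nM normal enzyme, 30 uM resorufin beta-D-glucopyranoside substrate, citrate/phosphate buffer with taurocholate and tween-20, pH 5.9. Reaction ran 20 min at room temperature; fluorescence (Ex 548/Em 600) gave AC50.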
Potency means the concentration at half of the fitted maximal effect.

Potency, inactive:
Cc1ccc(-c2cn3c(=S)[nH]nc3s2)cc1 > 76.9 µM, CSc1ccccc1NS(=O)(=O)c1ccccc1 > 76.9 µM, Cc1cc(C)nc(SCc2nnc(SCC(=O)Nc3ncc(C)s3)n2Cc2ccco2)n1 > 76.9 µM, CN(C)S(=O)(=O)N1CCN(S(=O)(=O)c2ccc(F)cc2)CC1 > 76.9 µM, Clc1ccc(Cn2ncc3c(NCc4cccnc4)ncnc32)cc1 > 76.9 µM, CCc1c(C)c2cc(Cl)c(O)c(CN(CC)CC)c2oc1=O > 76.9 µM, Cc1ccc(CN2CC(C(=O)Nc3ccc(S(=O)(=O)Nc4cc(C)nc(C)n4)cc3)CC2=O)cc1 (stereo unspecified) > 76.9 µM, Cc1cc2c(c(=O)n1CCN(C)C)C(c1ccncc1)C(C#N)=C(N)O2 (stereo unspecified) > 76.9 µM, COc1ccc(C2(NC(C)=O)CCN(C(=O)c3ccco3)CC2)cc1 > 76.9 µM, O=C(O)c1ccccc1-c1nc2ccccc2c(=O)[nH]1 > 76.9 µM, COc1cc(S(=O)(=O)NCc2ccccc2)ccc1F > 76.9 µM, Cn1c(-c2ccccc2)cccc1=O > 76.9 µM, OCc1ccccc1CNCc1ccccc1 > 76.9 µM, O=c1cc(CSc2ccc(Cl)cc2)nc(N2CCCCC2)[nH]1 > 76.9 µM, CSc1nsc(SCC(=O)Nc2c(C)n(C)n(-c3ccccc3)c2=O)n1 > 76.9 µM, CCSC1=C(C#N)C2(CCCCC2)C(C#N)=C(N)N1, O=C(CCN1C(=O)c2ccccc2C1=O)Nc1ccc(F)cc1F > 76.9 µM, CC(=O)Nc1c(C#N)c(C(C)(C)C)cn1C > 76.9 µM, O=C(CSc1nc(-c2ccco2)cc(C(F)(F)F)n1)Nc1ccc2c(c1)OCO2 > 76.9 µM, Cc1ccc(S(=O)(=O)NCCC(=O)NCc2ccccc2)cc1 > 76.9 µM, CC(C)CSc1nc2c(c(=O)[nH]c(=O)n2C)n1CC(O)COc1cccc2ccccc12 (stereo unspecified) > 76.9 µM, Cc1c(NC(=O)Cn2cnc3c(=O)n(C)c(=O)n(C)c32)cccc1-c1nc2ccccc2o1 > 76.9 µM, CCN(CC)S(=O)(=O)c1cccc2nsnc12 > 76.9 µM, Cc1ccc(N2C(=O)C3C4C=CC(C4)C3C2=O)cc1C (stereo unspecified) > 76.9 µM, COc1ccc(C(=O)N(Cc2ccco2)Cc2cc3cc(C)ccc3[nH]c2=O)cc1OC > 76.9 µM, COc1ccc(CC2S/C(=C(\C#N)C(=O)NCc3ccco3)N(c3ccc(C)cc3)C2=O)cc1 (stereo unspecified) > 76.9 µM, Cc1nnc(SCCn2c(N3CCC(C)CC3)nc3c2c(=O)[nH]c(=O)n3C)s1 > 76.9 µM, O=C(OCC(=O)N1CCN(C(=O)c2ccco2)CC1)c1ccccc1OCc1ccc(Cl)cc1 > 76.9 µM, CCc1ccccc1NC(=O)c1ccc(F)c(S(=O)(=O)N2CCC(C(N)=O)CC2)c1 > 76.9 µM, CCN(C(=O)CSc1nnc(-c2ccccc2Cl)n1C1CCCC1)C1CCS(=O)(=O)C1 (stereo unspecified) > 76.9 µM, CC1=C(C#N)C(Nc2cccc(C)n2)(C(F)(F)F)C(=O)N1 (stereo unspecified) > 76.9 µM, NC(=O)C1CCCN(C(=O)NC2CCCCC2)C1 (stereo unspecified) > 76.9 µM, C/C(N)=C(/C#N)C(=O)CSc1nnc(NC(C)C)s1 > 76.9 µM, Cc1ccc(-c2nn3c(-c4ccco4)nnc3c3ccccc23)cc1S(=O)(=O)N1CCOCC1 > 76.9 µM, O=C(CSc1nc2sc3c(c2c(=O)n1Cc1ccco1)CCC3)N1CCc2ccccc21 > 76.9 µM, CCn1c(SCc2cccc(C(F)(F)F)c2)nnc1-c1ccco1 > 76.9 µM, Cc1cccc(NC2=NC(C)(C)N=C(N)N2)c1C > 76.9 µM, Cc1cccc(OCCCn2ccnc2)c1 > 76.9 µM, CCC(OC(=O)c1cccs1)C(=O)NCc1ccc2c(c1)OCO2 (stereo unspecified) > 76.9 µM, CC(C)(C)c1nnc2sc(SC/C(O)=C(\C#N)c3nc4ccccc4[nH]3)nn2c1=O > 76.9 µM, CCS(=O)(=O)c1ccc(NC(=O)c2ccccc2Cl)c(O)c1 > 76.9 µM, O=C(Nc1cc(C(=O)N2CCOCC2)ccc1N1CCCC1)c1cccs1 > 76.9 µM, COc1ccc(C2(O)CC3CCC(C2)N3c2nc(C)cc(C)c2C#N)cc1 (stereo unspecified) > 76.9 µM, CCNc1ccc(C(=O)OCC)cc1NC(=O)c1cccc(S(=O)(=O)N2CCOCC2)c1 > 76.9 µM, CN(C)S(=O)(=O)N1CCN(S(=O)(=O)N(C)C)CC1 > 76.9 µM, Cn1nnc2cc(C(=O)NCc3ccc4c(c3)OCO4)ccc21 > 76.9 µM, Cc1ccccc1NC(=O)Cn1cccc1 > 76.9 µM, CN(C)S(=O)(=O)c1ccc(C(=O)NCc2cccs2)cc1 > 76.9 µM, O=C(Cn1nc(-c2ccccc2F)ccc1=O)NCc1ccc2c(c1)OCO2 > 76.9 µM, CCn1c(Cc2cccs2)nnc1SCC(=O)Nc1ccc(OC)c(OC)c1 > 76.9 µM, CCn1c(N)c(C(N)=O)sc1=S > 76.9 µM, C(=C\c1ccccc1)/CSc1nnc(-c2ccncc2)n1Cc1ccco1 > 76.9 µM, CCOC(=O)N1CCN(C(=O)CCNS(=O)(=O)c2cc(Br)cnc2N)CC1 > 76.9 µM, O=C(CN1C(=O)CNC1=O)Nc1cccc(C(F)(F)F)c1 > 76.9 µM, COc1ccc(N=c2oc3cc(O)ccc3cc2C(=O)NCC2CCCO2)c(OC)c1 (stereo unspecified) > 76.9 µM, CC(C)CC(=O)NCC(C)NC(=O)CC(C)C (stereo unspecified) > 76.9 µM, CCn1c(CC(C)C)n[nH]c1=S > 76.9 µM, Cc1cc(C)nc(SCc2nnc(SCc3ccccc3Cl)o2)n1 > 76.9 µM, COC(=O)c1ccc(COC(=O)C23CC4CC(CC(O)(C4)C2)C3)o1 > 76.9 µM, COc1ccc(S(=O)(=O)N(Cc2cccs2)C2CCCC2)cc1, CC(=O)c1c(O)cc(C)n(Cc2ccccc2)c1=O > 76.9 µM, COc1ccccc1NC(=O)CCN1CCN(CCC(=O)Nc2ccccc2OC)CC1 > 76.9 µM, COC(=O)c1sccc1NC(=O)C1CC=CCC1C(=O)O (stereo unspecified) > 76.9 µM, CCOC(=O)C1CCN(C(=O)c2ccc3c(c2)OCO3)CC1 > 76.9 µM, O=C(O)c1ccc(CSCc2ccccc2F)o1 > 76.9 µM, CCn1c(SCC(=O)Nc2cc(C)on2)nnc1-c1ccc(S(=O)(=O)N2CCCC2)cc1 > 76.9 µM, Cc1c(C(=O)OCC(=O)c2ccc3c(c2)OCCO3)oc2ccccc12 > 76.9 µM, CCOC(=O)N1CCN(C(=O)CSCC(=O)N=c2sc3ccccc3n2C)CC1 > 76.9 µM, O=C(COc1ccc2ccc(=O)oc2c1)Nc1ccc2c(c1)OCCO2 > 76.9 µM, CCOC(=O)COc1ccc(C2NC(C(=O)O)CS2)cc1 (stereo unspecified) > 76.9 µM, COCCN1Cc2cccc(C(=O)Nc3c(C)cccc3C)c2C1=O > 76.9 µM, COc1ccc(CN2C(=O)c3ccccc3C2C(=O)NC2CCCC2)c(OC)c1 (stereo unspecified) > 76.9 µM, CCOC(=O)c1ccc(N2C(=O)CC(N3CC(C)OC(C)C3)C2=O)cc1 (stereo unspecified) > 76.9 µM, COc1ccccc1C1C(C(=O)c2sc(C)nc2C)=C(O)C(=O)N1CCN1CCOCC1 (stereo unspecified) > 76.9 µM, CNC(=O)CN(c1cc(C)ccc1C)S(C)(=O)=O > 76.9 µM, Cc1nc(C)c(NC(=O)N2CCc3ccccc32)cc1NC(=O)N1CCc2ccccc21 > 76.9 µM, CCSC1=NC(=O)/C(=C2/C=Cc3ccccc3N2CC)S1 > 76.9 µM, Cc1cc(=O)n(CCO)c(O)c1C#N > 76.9 µM, c1ccc2c(c1)OCC(c1nnc3sc(-c4cnccn4)nn13)O2 (stereo unspecified) > 76.9 µM, CN(C)S(=O)(=O)N1CCN(C(=O)N2CCCCC2)CC1 > 76.9 µM, C=CCNC(=O)c1oc2ccc(S(=O)(=O)N(CC)CC)cc2c1C > 76.9 µM, Cc1cc(C(=O)CSc2nnc(-c3ccccc3)n2Cc2ccc3c(c2)OCO3)c(C)n1C > 76.9 µM, CCCn1nnc(NC(=O)c2ccccc2Br)n1 > 76.9 µM, CC1Cc2ccccc2N1C(=O)CSc1nnc(CSc2ncccn2)n1C (stereo unspecified) > 76.9 µM, CN1C(=O)c2cccc3c(S(=O)(=O)NCc4ccco4)ccc1c23 > 76.9 µM, CCOC(=O)/C=C1\CC(=O)Nc2cc(C)c(C)cc2N1 > 76.9 µM, COC(=O)CSc1nnc(-c2cccnc2)n1-c1cccc(OC)c1 > 76.9 µM, CCCN(CCC)CCCNC(=O)c1cc2cc3ccc(OC)cc3nc2o1 > 76.9 µM, CC1CCC2(CC1)NC(=O)N(CC(=O)NC(=O)NC1CCCC1)C2=O (stereo unspecified) > 76.9 µM, O=C(NCc1ccc2c(c1)OCO2)c1c[nH]c2ccc(S(=O)(=O)N3CCOCC3)cc2c1=O > 76.9 µM

Potency, active:
CCOC(=O)C1CCN(c2nc(-c3ccccc3)nc3c2oc2ccccc23)CC1 7.39 µM
